Experimental data from paper PMC4336329 (PLoS ONE, 2015).
The campaign covered roughly 310,000 compounds. About 2,200 (0.71%) showed an effect of 50% or more. Effects have a minus sign here. This is one part of the list.

Target: human ether-à-go-go-related gene (hERG) potassium channel (human, UniProt Q12809)
Assay: primary screen, population patch clamp on CHO cells stably expressing hERG

human ether-à-go-go-related gene (hERG) potassium channel, sequence (Q12809 whole entry, looked up): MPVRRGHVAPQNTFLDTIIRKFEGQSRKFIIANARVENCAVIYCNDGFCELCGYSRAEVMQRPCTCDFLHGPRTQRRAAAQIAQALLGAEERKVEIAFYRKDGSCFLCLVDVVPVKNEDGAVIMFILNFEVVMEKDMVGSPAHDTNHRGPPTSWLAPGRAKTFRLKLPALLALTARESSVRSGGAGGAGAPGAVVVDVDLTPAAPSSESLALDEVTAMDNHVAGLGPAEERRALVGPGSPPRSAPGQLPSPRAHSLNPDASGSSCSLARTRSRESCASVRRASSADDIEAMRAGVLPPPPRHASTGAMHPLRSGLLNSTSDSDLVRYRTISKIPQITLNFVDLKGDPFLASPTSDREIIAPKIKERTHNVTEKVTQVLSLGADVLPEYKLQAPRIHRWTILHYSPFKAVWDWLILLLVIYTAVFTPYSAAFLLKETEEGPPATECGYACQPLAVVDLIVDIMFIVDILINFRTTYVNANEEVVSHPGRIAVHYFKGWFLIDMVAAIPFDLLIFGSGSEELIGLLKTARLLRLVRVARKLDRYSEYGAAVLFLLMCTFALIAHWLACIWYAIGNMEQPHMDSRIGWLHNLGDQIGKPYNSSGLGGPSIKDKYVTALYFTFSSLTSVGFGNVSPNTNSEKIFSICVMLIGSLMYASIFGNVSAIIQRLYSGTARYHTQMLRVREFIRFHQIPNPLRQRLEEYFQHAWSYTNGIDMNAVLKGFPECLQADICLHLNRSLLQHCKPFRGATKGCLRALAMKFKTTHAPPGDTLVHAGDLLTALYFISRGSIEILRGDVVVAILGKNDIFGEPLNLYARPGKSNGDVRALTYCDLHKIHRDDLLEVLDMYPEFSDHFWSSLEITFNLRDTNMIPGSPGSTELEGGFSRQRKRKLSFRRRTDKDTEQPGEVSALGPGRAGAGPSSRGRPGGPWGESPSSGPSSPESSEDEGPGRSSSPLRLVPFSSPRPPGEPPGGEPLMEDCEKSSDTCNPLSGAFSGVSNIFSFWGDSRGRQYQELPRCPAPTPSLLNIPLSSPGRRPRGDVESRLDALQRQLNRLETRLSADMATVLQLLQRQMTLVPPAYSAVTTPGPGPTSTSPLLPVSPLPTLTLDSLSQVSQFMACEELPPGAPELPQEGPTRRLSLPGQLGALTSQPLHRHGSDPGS

Compared with `C[C@H]1[C@H](c2ccccc2)C[C@@H](C(=O)O)C1(C)C`, `Cc1ccc2ccccc2c1NC(=O)c1ccco1` is higher in “hERG current change (%, negative = inhibition) at 1uM” value: 2.81% for the first, 11% for the second.

First: CCOC(=O)c1cc(-c2ccccc2)sc1NC(=O)C(C)OC(=O)c1cccnc1Cl (stereo not drawn)
Second: CCOC(=O)C1=C(COc2ccccc2)NC(=O)NC1c1ccc(Cl)cc1 (stereo not drawn)
The “hERG current change (%, negative = inhibition) at 1uM” value of the first is higher: -1.37% for the first, -11.1% for the second.

Compared with `CCCCNC(=O)NCC(=O)Nc1ccc(F)c(F)c1`, `Cc1ccc(Cl)c(NC(=O)CSc2n[nH]c(=O)n2C2CC2)c1Cl` is higher in “hERG current change (%, negative = inhibition) at 1uM” value: 4.38% for the first, 12.2% for the second.

Compared with `Clc1ccc2nc(N3CCNCC3)nc(-c3ccccc3)c2c1`, `Cc1ccc(C(=O)NCCc2ccccc2)cc1N1CCCC1=O` is higher in “hERG current change (%, negative = inhibition) at 1uM” value: 7.08% for the first, 24.3% for the second.

Compared with `CCOC(=O)c1c(CC(C)C)csc1NC(=O)COC(=O)c1cc(OC)c(OC)cc1[N+](=O)[O-]`, `COc1cc(NC(=O)C2CCN(S(=O)(=O)c3cnc[nH]3)CC2)cc(OC)c1OC` is higher in “hERG current change (%, negative = inhibition) at 1uM” value: -13.5% for the first, 2.95% for the second.

First: COCCn1c(SCC(=O)N2CCCCCC2)nc2c([nH]c3ccccc32)c1=O
Second: COCCn1c(=O)c2c(nc3n2CC(C)CN3Cc2ccccc2)n(C)c1=O (stereo not drawn)
The “hERG current change (%, negative = inhibition) at 1uM” value of the first is higher: 8.15% for the first, -0.925% for the second.

First: COc1cccc(C2(C#N)CCN(C)CC2)c1
Second: CN(C)S(=O)(=O)N1CCC(Oc2ccc(C(=O)NCC(C)(C)CO)cc2)CC1
The “hERG current change (%, negative = inhibition) at 1uM” value of the first is lower: 9.48% for the first, 14.8% for the second.

Compared with `O=C(NC(Cc1ccccc1)C(=O)O)/C(=C/c1cccc([N+](=O)[O-])c1)NC(=O)c1ccco1` (stereo not drawn), `CCN(c1ccccc1)S(=O)(=O)c1c[nH]c2ccc([N+](=O)[O-])cc12` is lower in “hERG current change (%, negative = inhibition) at 1uM” value: 20.2% for the first, 10.4% for the second.

Going from `COCCn1c(-c2ccc(Cl)cc2)cnc1SCC(=O)NCc1cccs1` to `COCCNC(=O)C(OC(=O)CC1Sc2ccccc2NC1=O)c1ccncc1` (stereo not drawn), the “hERG current change (%, negative = inhibition) at 1uM” value rises from -2.15% to 0.268%.

Compared with `CCc1ccc(C2CC(=O)Nc3c2c(=O)nc2c(C)cccn32)cc1` (stereo not drawn), `O=C(Nc1nnc(SCc2ccc(F)cc2)s1)C1CC(=O)N(Cc2ccccc2)C1` (stereo not drawn) is lower in “hERG current change (%, negative = inhibition) at 1uM” value: 8.85% for the first, 7.92% for the second.

Compared with `O=C(CCl)Oc1ccc2occ(C(=O)c3cccs3)c2c1`, `N#Cc1c(SCC(=O)Nc2ccccc2)nsc1SCC(=O)Nc1ccccc1` is lower in “hERG current change (%, negative = inhibition) at 1uM” value: 6.64% for the first, 5.19% for the second.

Going from `O=c1[nH][nH]c(C(F)(F)F)c1C=Nc1cccc(Cl)c1` to `C=CCn1c(O)c(/C(CC)=N/NC(=S)Nc2ccccc2)c(=O)[nH]c1=O`, the “hERG current change (%, negative = inhibition) at 1uM” value rises from 9.37% to 9.98%.
